Data from PubChem BioAssay AID624417 (National Center for Advancing Translational Sciences (NCATS), 2012).
Values joined by “and” are separate entries in the source; they are usually repeats but may differ in a detail not shown here. Equal values may be shown once. Out of some 410,000 compounds screened, about 6,400 (1.6%) were called active. The shares of active, inactive and inconclusive entries below differ from those in the screen. The call rests on the fitted dose curve; in most records, active means well fitted inhibition curve with a large enough effect; inconclusive means small, poorly fitted or top-dose-only effect; inactive means no such curve, though single readings can be large or run the other way. A potency beside an inconclusive call is a rough fit, not a confirmed value.

The compounds below were run against Glucagon-like peptide 1 receptor (Homo sapiens) (UniProt P43220) (assay: qHTS of GLP-1 Receptor Inverse Agonists (Inhibition Mode)). Details: HEK293 GLP-1R CRE-luciferase, luminescence, 24 h, GLP-1R form is constitutively active; activity change, negative = inhibition: at 38.3 µM (top of the series) unless noted.
Outline: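 Inverse agonism was detected as reduced cAMP-driven luciferase luminescence after 24 h compound treatment. The cells were HEK293 clones expressing constitutively active human GLP-1R with the reporter. Reporter-only and GPR119 cell lines served as counterscreen controls.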
Further: nearly all actives have a fitted effect of over 55% in size.
On the % scale 0 is the no-effect control and ±100 the full control effect; potency means the concentration at half of the fitted maximal effect; tags describe the fitted curve by direction and shape.

Chain of UniProt P43220 (P43220 whole entry, looked up): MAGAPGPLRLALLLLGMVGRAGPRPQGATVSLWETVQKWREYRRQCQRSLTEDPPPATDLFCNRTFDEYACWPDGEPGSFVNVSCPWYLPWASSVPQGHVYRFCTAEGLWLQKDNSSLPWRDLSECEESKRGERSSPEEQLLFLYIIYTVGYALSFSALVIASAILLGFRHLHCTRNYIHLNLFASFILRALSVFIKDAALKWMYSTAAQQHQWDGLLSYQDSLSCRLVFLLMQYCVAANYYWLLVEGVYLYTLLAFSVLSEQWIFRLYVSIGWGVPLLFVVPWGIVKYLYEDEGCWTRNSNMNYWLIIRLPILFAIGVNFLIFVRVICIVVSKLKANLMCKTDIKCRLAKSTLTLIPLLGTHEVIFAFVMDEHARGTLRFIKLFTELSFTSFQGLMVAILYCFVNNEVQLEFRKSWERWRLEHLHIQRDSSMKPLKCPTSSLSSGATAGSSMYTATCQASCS

Row | Structure (SMILES) | Potency | activity change, negative = inhibition
1 | O=S(=O)(c1ccc(F)cc1)N1CCN(CC2CC3C=CC2C3)CC1 (centres undefined) | inconclusive: 5.62 µM [inhibitor, partial curve, poor fit] | –
2 | O=C(Nc1ccccc1)c1ccc2c(c1)CCN2S(=O)(=O)c1ccccc1 | inconclusive: 11.2 µM [inhibitor, partial curve, poor fit] | –
3 | O=C(c1cccc(NS(=O)(=O)c2ccc(Br)cc2)c1)N1CCN(c2ccccc2O)CC1 | inconclusive: 28.2 µM [inhibitor, single point] | –
4 | Cc1ccc(NC(=S)N(CCN2CCOCC2)Cc2ccccc2F)cc1Cl | – | inactive: -16.2% [at 0.307 µM]
5 | COc1cc(OC)cc(C(=O)Nc2ccc3nc(N4CCC(C)CC4)cc(C)c3c2)c1 | inconclusive: 11.2 µM [inhibitor, partial curve, poor fit] | –
6 | CC(=O)Nc1ccc(S(=O)(=O)/N=C2\C(=O)c3ccccc3C([O-])=C2n2cc[n+](-c3ccccn3)c2)cc1 | inconclusive: 28.2 µM [inhibitor, single point] | –
7 | Cc1ccc(CS(=O)(=O)Cc2ccc(C(=O)NCCc3ccc(Cl)cc3)o2)cc1 | – | inactive: 7.41%
8 | O=C(CCNc1ccc(Cl)c(C(F)(F)F)c1)c1ccco1 | inconclusive: 3.55 µM [inhibitor, partial curve, poor fit] | –
9 | C=CCNc1cnn(-c2ccc(C)cc2)c(=O)c1Sc1ccc(C)cc1 | inconclusive: 10 µM [inhibitor, partial curve, poor fit] | –
10 | CCOC(=O)C1=CC[C@@H](c2ccccc2)N(S(=O)(=O)c2ccc(C)cc2)[C@H]1C | inconclusive: 28.2 µM [inhibitor, single point] | –
11 | Cc1ccc(/C=N/NC(=O)c2cccs2)s1 | – | inactive: 10.9%
12 | COc1ccc(-c2cc(C(=O)N3CC4(C)CC3CC(C)(C)C4)no2)cc1OC (centres undefined) | inconclusive: 2 µM [inhibitor, full curve] | –
13 | Cc1cc(-c2ccc(C)c(S(=O)(=O)NCc3ccc(Cl)cc3)c2)on1 | inconclusive: 12.6 µM [inhibitor, single point] | –
14 | Cc1csc(SCC(=O)Nc2ccc(C)c(S(=O)(=O)N(C)C)c2)n1 | – | inactive: 4.33%
15 | COc1ccccc1N(CC(=O)NCCSCc1ccc(Cl)cc1)S(C)(=O)=O | inconclusive: 28.2 µM [inhibitor, single point] and inconclusive: 7.94 µM [inhibitor, partial curve, poor fit] | –
16 | CCCCCCn1c(=O)n2n(c1=O)[C@@H]1CN(S(=O)(=O)c3ccc(C)cc3)C[C@]1(O)[C@@H](OC(=O)NCc1ccc(OC)c(OC)c1)C2 | inconclusive: 31.6 µM [inhibitor, single point] | –
17 | Cc1ccc(NC(=O)CN2CCN(Cc3ccccc3)CC2)cc1Cl | inconclusive: 10 µM [inhibitor, partial curve, poor fit] | –
18 | COC(=O)CCSCc1cn2cc(Cl)ccc2n1 | – | inactive: 5.39%
19 | O=C(COC(=O)c1ccccc1Br)NCCC1=CCCCC1 | inconclusive: 11.2 µM [inhibitor, partial curve, poor fit] | –
20 | O=C(CSc1ccc(Cl)cc1)Nc1cccc(-c2nc3ccccc3[nH]2)c1 | inconclusive: 28.2 µM [inhibitor, single point] | –

Row | Structure (SMILES) | Potency | activity change, negative = inhibition
21 | CCc1c(C2(O)CCCCC2)[nH]c2ncccc12 | inconclusive: 12.6 µM [inhibitor, single point] | –
22 | O=C1/C(=C/Nc2ccc3c(c2)OCO3)CCc2ccccc21 | inconclusive: 10 µM [inhibitor, partial curve, poor fit] | –
23 | COc1ccc(CN(C)C(=O)c2cccc(Oc3ccccc3)c2)c(OC)c1OC | inconclusive: 11.2 µM [inhibitor, partial curve, poor fit] | –
24 | CSc1ccccc1NS(=O)(=O)c1cccc2nonc12 | inconclusive: 12.6 µM [inhibitor, single point] | –
25 | O=C(Nc1cc(Cl)cc(Cl)c1)C1CCC(=O)N1Cc1ccccc1Cl (centres undefined) | inconclusive: 25.1 µM [inhibitor, single point] | –
26 | COc1ccc(OC)c(/C=C/C(=O)c2ccc3c(c2)OCCO3)c1 | inconclusive: 28.2 µM [inhibitor, single point] | –
27 | Cc1nn(-c2ccccc2)c(C)c1C(=O)OCc1ccc(C#N)cc1 | inconclusive: 28.2 µM [inhibitor, single point] | –
28 | CCN1C(=O)c2ccccc2Sc2ccc(NC(=O)c3ccc(C)c(F)c3)cc21 | – | inactive: -10.7%
29 | Cc1cc(-c2ccccc2)n2ncc(-c3ccccc3)c2n1 | inconclusive: 12.6 µM [inhibitor, partial curve, poor fit] | –
30 | O=C(Cn1nnc2sc3c(c2c1=O)CCCC3)Nc1ccc(F)c(Cl)c1 | inconclusive: 28.2 µM [inhibitor, single point] | –
31 | CC(C)(C)C(=O)Nc1sc(-c2ccccc2)cc1C(=O)O | inconclusive: 12.6 µM [inhibitor, partial curve, poor fit] | –
32 | O=C(c1ccc(S(=O)(=O)N2CCCCCC2)cc1)N(c1ccccn1)C1CCCCC1 | inconclusive: 7.94 µM [inhibitor, partial curve, poor fit] | –
33 | C/C(CCc1ccc2c(c1)OCO2)=N\NC(=S)NC(C)C | inconclusive: 7.94 µM [inhibitor, partial curve, poor fit] | –
34 | Cc1cc(C(=O)CSc2nnc(-c3ccccc3)o2)c(C)n1CC1COc2ccccc2O1 (centres undefined) | inconclusive: 1 µM [inhibitor, full curve] | –
35 | O=C(N/N=C/c1ccccc1O)c1cccc(C(F)(F)F)c1 | inconclusive: 0.891 µM [inhibitor, full curve, poor fit] | –
36 | COc1ccc(-n2ncc3c2CC(C)(C)CC3NC(=O)CCn2nc(C)cc2C)cc1 (centres undefined) | inconclusive: 28.2 µM [inhibitor, single point] | –
37 | CCN(C[C@H]1N[C@@](Cc2ccccc2)(C(=O)OC)[C@H]2C(=O)N(C)C(=O)[C@@H]12)S(=O)(=O)c1ccc(OC(F)(F)F)cc1 | inconclusive: 28.2 µM [inhibitor, single point] | –
38 | Nc1ccc(-c2nc3cc(N)ccc3s2)cc1 | inconclusive: 28.2 µM [inhibitor, single point] | –
39 | C=C1C(=O)O[C@H]2C[C@]3(C)C([C@@H](OC(=O)/C(C)=C/C)[C@H]12)[C@](C)(O)CC[C@H]3O (some centres undefined) | – | inactive: 3.65%
40 | O=C(OCC(=O)N1CCOCC1)c1ccc(Br)cc1 | – | inactive: 21.8%

Row | Structure (SMILES) | Potency | activity change, negative = inhibition
41 | CCOc1ccccc1-n1nnnc1SCC(=O)NCC1(N2CCOCC2)CCCCC1 | inconclusive: 28.2 µM [inhibitor, single point] | –
42 | C/C(=N\NC(=O)c1c[nH]c2ccccc12)c1ccccn1 | inconclusive: 10 µM [inhibitor, single point] | –
43 | CCOc1ccc(S(=O)(=O)Nc2ccc3c(c2)c(C(C)=O)c(C)n3S(=O)(=O)c2ccc(OCC)cc2)cc1 | inconclusive: 12.6 µM [inhibitor, single point] | –
44 | COC(=O)C1=CN(C(C)C)C=C(C(=O)OC)C1c1cccc(OC)c1 | inconclusive: 10 µM [inhibitor, single point] | –
45 | COc1cccc(CN2CCNC(=O)C2CC(=O)NCC(C)(C)N2CCOCC2)c1OC (centres undefined) | inconclusive: 2.51 µM [inhibitor, full curve] | –
46 | O=C(CSCc1cccc(CSCC(=O)Nc2ccc3ccccc3c2)n1)Nc1ccc2ccccc2c1 | inconclusive: 10 µM [inhibitor, partial curve, poor fit] | –
47 | CC(C)CC1(C)NC(=O)N(CC(=O)Nc2ccccc2Br)C1=O (centres undefined) | inconclusive: 10 µM [inhibitor, partial curve, poor fit] | –
48 | COCCNC(=O)/C(C#N)=C/c1cccc(/C=C(\C#N)C(=O)NCCOC)c1 | – | inactive: 2.49%
49 | CN1CCN(C2Cc3ccc(F)cc3Sc3cc(F)c(Cl)cc32)CC1 (centres undefined) | inconclusive: 2.51 µM [inhibitor, partial curve, poor fit] | –
50 | COc1cc(/C=C(\C#N)C(=O)Nc2cc(C(F)(F)F)ccc2Cl)ccc1OCC(=O)Nc1cccc(C(F)(F)F)c1 | inconclusive: 1.41 µM [inhibitor, partial curve, poor fit] | –
51 | C=CCOc1ccc(CN(C)C(=O)CNC(=O)c2ccc(-c3ccccc3)cc2)cc1 | inconclusive: 6.31 µM [inhibitor, partial curve, poor fit] | –
52 | COC(=O)c1ccc(C2c3c(oc4cc(C)c(C)cc4c3=O)C(=O)N2c2ccccn2)cc1 (centres undefined) | – | inactive: -2.29%
53 | CCc1ccc(NC(=O)c2noc3c2CCCCC3)cc1 | inconclusive: 28.2 µM [inhibitor, single point] | –
54 | c1ccc2c(c1)CCN(Cc1nnnn1Cc1ccc3c(c1)OCO3)C2 | inconclusive: 22.4 µM [inhibitor, single point] | –
55 | CCOC(=O)c1ccccc1NC1(c2ccc(OC)cc2)C(=O)c2ccccc2C1=O | inconclusive: 12.6 µM [inhibitor, single point] | –
56 | c1ccc(-c2cc(-c3nc4ccccc4[nH]3)c3ccccc3n2)cc1 | inconclusive: 8.91 µM [inhibitor, partial curve, poor fit] | –
57 | O=c1cnc2ccccc2n1Cc1ccccc1C(F)(F)F | inconclusive: 0.501 µM [inhibitor, full curve, poor fit] | –
58 | COc1ccc(C(=O)C(=NNc2ccccc2)c2ccc(OC)cc2)cc1 | inconclusive: 12.6 µM [inhibitor, partial curve, poor fit] | –
59 | CCC(C)c1ccccc1N1CC(C(=O)N2CCN(S(=O)(=O)c3ccccc3Br)CC2)CC1=O (centres undefined) | inconclusive: 10 µM [inhibitor, single point] | –
